# Assay results: a collection of fitness landscapes (doi:10.1038/s41467-024-54723-y)
# In all, about 18,000 sequences were measured (“TetR repression strength (sort-seq, GFP reporter)”: median about 0.23, highest 2% from about 0.68 on). Some of the results follow.
# Target: TetR (class B, Tn10) (UniProt P04483)
# Assay: TetR repression strength (sort-seq, GFP reporter) (relative to tetO2 = 1); higher = stronger repression
# Conditions: E. coli
# How it was run: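 In LB with 50 µg/mL chloramphenicol, E. coli SIG10-MAX holding a low-copy library with eight randomized operator positions between a constitutive promoter and sfGFP, plus constitutive TetR, grew for 5 h at 37 °C. FACS then sorted 10^6 cells into 13 fluorescence bins for Illumina sequencing of each bin. Repression strength equals the top bin index plus one less the read-weighted mean bin, normalized to the unaltered operator. Values from three independent transformations were averaged when reads were ≥30 in every replicate and the CV was ≤0.5.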
# Chain of UniProt P04483 (P04483 whole entry): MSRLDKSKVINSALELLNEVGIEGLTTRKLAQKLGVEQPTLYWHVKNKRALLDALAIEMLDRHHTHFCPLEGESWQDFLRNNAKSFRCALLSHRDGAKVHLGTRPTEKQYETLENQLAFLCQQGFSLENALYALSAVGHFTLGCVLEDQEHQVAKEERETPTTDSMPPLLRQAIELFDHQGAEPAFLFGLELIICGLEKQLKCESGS
row,Sequence,TetR repression strength
1,TCCCTTAGAGTTGGTGAGA,0.266
2,TCCCATGCAGTTCTAGAGA,0.302
3,TCCCCACTAGTTTCTGAGA,0.485
4,TCCCGGGTAGTTAGAGAGA,0.113
5,TCCCATGAAGTTGACGAGA,0.186
6,TCCCGAGGAGTCAGTGAGA,0.247
7,TCCCGTTTAGTAGTAGAGA,0.27
8,TCCCGAACAGTGCATGAGA,0.373
9,TCCCTTCTAGTCTGTGAGA,0.345
10,TCCCCTTTAGTCAGGGAGA,0.104
11,TCCCGTTTAGTTGGTGAGA,0.139
12,TCCCACGGAGTCGCAGAGA,0.272
13,TCCCCAACAGTGAGAGAGA,0.344
14,TCCCCGGGAGTATGAGAGA,0.371
15,TCCCATACAGTTCGAGAGA,0.265
16,TCCCTTAAAGTACATGAGA,0.433
17,TCCCCGTAAGTGAGGGAGA,0.0939
18,TCCCTGAAAGTCTGCGAGA,0.134
19,TCCCATAGAGTTCCAGAGA,0.374
20,TCCCGAGTAGTGCCCGAGA,0.147
21,TCCCTAATAGTGCTGGAGA,0.387
22,TCCCCTATAGTCCATGAGA,0.207
23,TCCCTGGAAGTGGGGGAGA,0.208
24,TCCCTATTAGTTCGAGAGA,0.135
25,TCCCGGTAAGTAACAGAGA,0.145
26,TCCCCGATAGTCGCCGAGA,0.184

row,Sequence,TetR repression strength
1,TCCCGGTCAGTGTGTGAGA,0.185
2,TCCCGGGTAGTGCAGGAGA,0.194
3,TCCCTATGAGTGAGCGAGA,0.278
4,TCCCACTGAGTACATGAGA,0.341
5,TCCCAACGAGTCCTAGAGA,0.407
6,TCCCTCAGAGTGTTAGAGA,0.248
7,TCCCAAACAGTACGGGAGA,0.12
8,TCCCGACAAGTGGGCGAGA,0.152
9,TCCCGGTAAGTCCCCGAGA,0.153
10,TCCCGGTGAGTATAGGAGA,0.138
11,TCCCCATCAGTTCCTGAGA,0.721
12,TCCCGAAAAGTGGTAGAGA,0.151
13,TCCCTGGGAGTTGATGAGA,0.227
14,TCCCTTTAAGTCGGCGAGA,0.391
15,TCCCAGTGAGTTGGCGAGA,0.296
16,TCCCGTAGAGTGGATGAGA,0.147
17,TCCCAATCAGTAGATGAGA,0.373
18,TCCCTACGAGTGGGCGAGA,0.164
19,TCCCACAGAGTACCCGAGA,0.222
20,TCCCAATCAGTCAAAGAGA,0.676
21,TCCCAATTAGTCGCTGAGA,0.203
22,TCCCCGACAGTTCGCGAGA,0.222
23,TCCCGGAAAGTGTACGAGA,0.141
24,TCCCGTTGAGTTTGGGAGA,0.09
25,TCCCGGCCAGTAGGAGAGA,0.194
26,TCCCAGATAGTATGCGAGA,0.373

row,Sequence,TetR repression strength
1,TCCCATGTAGTTTTGGAGA,0.361
2,TCCCACGTAGTTTTAGAGA,0.398
3,TCCCCTGCAGTTGCCGAGA,0.263
4,TCCCTAGTAGTCCCCGAGA,0.147
5,TCCCTAGGAGTGCCGGAGA,0.331
6,TCCCGCCAAGTCGTGGAGA,0.13
7,TCCCGTATAGTTTAAGAGA,0.538
8,TCCCCATTAGTGATGGAGA,0.153
9,TCCCTACAAGTCCCGGAGA,0.221
10,TCCCGCTTAGTCGAGGAGA,0.162
11,TCCCTTTGAGTGCTGGAGA,0.251
12,TCCCCGAGAGTCCTAGAGA,0.235
13,TCCCGTATAGTGTGTGAGA,0.0308
14,TCCCGTACAGTCTCGGAGA,0.254
15,TCCCAAGGAGTTGGGGAGA,0.0765
16,TCCCTTGAAGTGTGGGAGA,0.196
17,TCCCCATTAGTGTACGAGA,0.425
18,TCCCTTTGAGTCATGGAGA,0.194
19,TCCCCGAAAGTAACAGAGA,0.211
20,TCCCAATGAGTTTGCGAGA,0.21
21,TCCCCGGTAGTACTCGAGA,0.199
22,TCCCTCTAAGTCTATGAGA,0.285
23,TCCCAGGGAGTTCGGGAGA,0.289
24,TCCCTGCAAGTGGTGGAGA,0.426
25,TCCCTTTCAGTAGTGGAGA,0.249
26,TCCCTTGAAGTGGCTGAGA,0.373

row,Sequence,TetR repression strength
1,TCCCTATCAGTGTTCGAGA,0.777
2,TCCCCGAGAGTATAGGAGA,0.383
3,TCCCTAAGAGTCTTGGAGA,0.101
4,TCCCCGGGAGTCAAGGAGA,0.295
5,TCCCTTATAGTTACGGAGA,0.166
6,TCCCATGAAGTGCCAGAGA,0.228
7,TCCCATTAAGTGTGCGAGA,0.23
8,TCCCTTTGAGTTATAGAGA,0.256
9,TCCCCGTTAGTTCGAGAGA,0.171
10,TCCCATAAAGTCACCGAGA,0.289
11,TCCCTGTGAGTCATGGAGA,0.0807
12,TCCCTAATAGTATATGAGA,0.305
13,TCCCGTCCAGTGGCCGAGA,0.207
14,TCCCGAACAGTAAAAGAGA,0.286
15,TCCCGTGGAGTTAGTGAGA,0.276
16,TCCCGTGAAGTTCCGGAGA,0.205
17,TCCCAGCAAGTGAGTGAGA,0.201
18,TCCCGCGGAGTAGAGGAGA,0.389
19,TCCCAATGAGTGTAGGAGA,0.186
20,TCCCACCCAGTTCCTGAGA,0.322
21,TCCCGGTCAGTGAGTGAGA,0.463
22,TCCCAAGGAGTGCTTGAGA,0.139
23,TCCCGCTCAGTAGCTGAGA,0.197
24,TCCCGGGCAGTTGCAGAGA,0.509
25,TCCCCTACAGTCAATGAGA,0.166
26,TCCCCACAAGTATCCGAGA,0.296

row,Sequence,TetR repression strength
1,TCCCCGGGAGTAGACGAGA,0.238
2,TCCCCAAAAGTGTGGGAGA,0.821
3,TCCCTTTTAGTCGTTGAGA,0.161
4,TCCCAAAAAGTCTTCGAGA,0.286
5,TCCCAGGTAGTTGTCGAGA,0.0795
6,TCCCGTTAAGTATACGAGA,0.126
7,TCCCCTTAAGTGCAGGAGA,0.141
8,TCCCTTCTAGTCCCCGAGA,0.433
9,TCCCAAGTAGTCAATGAGA,0.663
10,TCCCGCGTAGTTGTAGAGA,0.542
11,TCCCGCCGAGTGATCGAGA,0.11
12,TCCCCTAAAGTGTGTGAGA,0.121
13,TCCCAGGCAGTCAAGGAGA,0.288
14,TCCCGACTAGTGTGCGAGA,0.399
15,TCCCGTCAAGTCGTCGAGA,0.0507
16,TCCCGCCAAGTTGACGAGA,0.0287
17,TCCCTTGCAGTGATGGAGA,0.268
18,TCCCGCAGAGTGGCAGAGA,0.139
19,TCCCACTCAGTGGCGGAGA,0.67
20,TCCCCTATAGTGGTAGAGA,0.84
21,TCCCGACAAGTGGTAGAGA,0.247
22,TCCCGATGAGTTAGGGAGA,0.296
23,TCCCTACCAGTGTCTGAGA,0.238
24,TCCCTCTCAGTTAGTGAGA,0.339
25,TCCCATTGAGTTCAGGAGA,0.101
26,TCCCCACGAGTGAGTGAGA,0.223

row,Sequence,TetR repression strength
1,TCCCAGACAGTCATTGAGA,0.375
2,TCCCATACAGTTATGGAGA,0.233
3,TCCCGTAGAGTGGCAGAGA,0.243
4,TCCCACTTAGTGCAGGAGA,0.0159
5,TCCCAGCGAGTCGCGGAGA,0.175
6,TCCCCTACAGTTGACGAGA,0.226
7,TCCCGTCAAGTAGATGAGA,0.42
8,TCCCGTTGAGTGGCTGAGA,0.0518
9,TCCCCAGGAGTCTAGGAGA,0.284
10,TCCCTTTTAGTCAGCGAGA,0.317
11,TCCCCAACAGTGCACGAGA,0.221
12,TCCCGCTCAGTTGTAGAGA,0.421
13,TCCCTAAGAGTAGGAGAGA,0.104
14,TCCCTGAAAGTGGGGGAGA,0.18
15,TCCCTAAAAGTGAAAGAGA,0.523
16,TCCCTGTTAGTTGCCGAGA,0.211
17,TCCCGACGAGTAGCGGAGA,0.32
18,TCCCGCAGAGTCGTAGAGA,0.0766
19,TCCCCGCTAGTGTGGGAGA,0.309
20,TCCCAGCAAGTACTCGAGA,0.594
21,TCCCAAAAAGTACAAGAGA,0.397
22,TCCCTCTTAGTGGGGGAGA,0.296
23,TCCCGGCTAGTGTATGAGA,0.561
24,TCCCCAGGAGTTAGAGAGA,0.315
25,TCCCCCGGAGTGCTAGAGA,0.199
26,TCCCTTACAGTGGCCGAGA,0.336

row,Sequence,TetR repression strength
1,TCCCGGCGAGTGCCCGAGA,0.174
2,TCCCGAGGAGTGATTGAGA,0.331
3,TCCCGAATAGTGGTTGAGA,0.256
4,TCCCATTAAGTGTGTGAGA,0.292
5,TCCCGGACAGTCGCGGAGA,0.0765
6,TCCCATATAGTTTAGGAGA,0.0773
7,TCCCGGTTAGTGTGAGAGA,0.0331
8,TCCCTAGGAGTTTGCGAGA,0.194
9,TCCCAATGAGTAAGCGAGA,0.437
10,TCCCAAGGAGTGTGCGAGA,0.239
11,TCCCGGTTAGTACGTGAGA,0.0126
12,TCCCGGCCAGTTATTGAGA,0.378
13,TCCCGGTAAGTGATAGAGA,0.609
14,TCCCTGTTAGTGAGGGAGA,0.243
15,TCCCTGTTAGTTGCAGAGA,0.157
16,TCCCGGAGAGTGAGGGAGA,0.21
17,TCCCTATTAGTCTGAGAGA,0.188
18,TCCCCTGGAGTGTTAGAGA,0.0855
19,TCCCTGAAAGTTAGCGAGA,0.503
20,TCCCTCTGAGTGTAGGAGA,0.231
21,TCCCATTGAGTGCGCGAGA,0.265
22,TCCCGCTGAGTAGCAGAGA,0.572
23,TCCCACCTAGTGGGTGAGA,0.155
24,TCCCCTTCAGTGTAAGAGA,0.233
25,TCCCTTTAAGTGGGTGAGA,0.519
26,TCCCCTGAAGTAAGCGAGA,0.311

row,Sequence,TetR repression strength
1,TCCCTTTTAGTGGGGGAGA,0.0851
2,TCCCATAGAGTACGGGAGA,0.3
3,TCCCTCATAGTTACCGAGA,0.575
4,TCCCAACGAGTACATGAGA,0.312
5,TCCCGGTGAGTTGGCGAGA,0.257
6,TCCCAGAAAGTACTAGAGA,0.311
7,TCCCGTCGAGTCGGCGAGA,0.0942
8,TCCCCCTAAGTAGCGGAGA,0.273
9,TCCCTCCGAGTCTGAGAGA,0.164
10,TCCCAGAGAGTGTGGGAGA,0.144
11,TCCCCCAGAGTAGGCGAGA,0.144
12,TCCCTGCGAGTGTCTGAGA,0.204
13,TCCCATTCAGTCAAGGAGA,0.464
14,TCCCCTGGAGTGTGAGAGA,0.0332
15,TCCCATGGAGTGTGAGAGA,0.294
16,TCCCTCTCAGTTGTTGAGA,0.357
17,TCCCGCCGAGTCACAGAGA,0.0411
18,TCCCGTAAAGTGTCGGAGA,0.0616
19,TCCCACTCAGTCACAGAGA,0.279
20,TCCCGGTGAGTCTGTGAGA,0.438
21,TCCCGGCCAGTTACCGAGA,0.207
22,TCCCAAGCAGTTTTGGAGA,0.0594
